Source: the supplement of paper PMC11876631
Where a chain is given by its changes, count along the chain named. Names and notes keep the numbering of the source. ± gives the standard deviation of the averaged measurements. Laboratory Escherichia coli strains with one amino-acid change in an essential protein, pooled on minimal glucose agar with carbenicillin or gentamicin at twice the control MIC (plus kanamycin and chloramphenicol for the plasmids), 48 h. Fold change of barcode share against drug-free plates; higher = less susceptible. Active = above 20 in both replicates (the paper's putatively resistant). '<' = one read or none on drug, '>' = one read or none on a drug-free plate. Shares are relative, so most strains fall below 1 when a few take over. Listed are strains with at least 15 reads on both drug-free plates, and hits; most hits rest on fewer reference reads. Replicate rank correlation about 0.5. Edits are read from barcodes.

B1: cysS L391A (protein)
chain: MLKIFNTLTRQKEEFKPIHAGEVGMYVCGITVYDLCHIGHGRTFVAFDVVARYLRFLGYKLKYVRNITDIDDKIIKRANENGESFVAMVDRMIAEMHKDFDALNILRPDMEPRATHHIAEIIELTEQLIAKGHAYVADNGDVMFDVPTDPTYGVLSRQDLDQLQAGARVDVVDDKRNPMDFVLWKMSKEGEPSWPSPWGAGRPGWHIECSAMNCKQLGNHFDIHGGGSDLMFPHHENEIAQSTCAHDGQYVNYWMHSGMVMVDREKMSKSLGNFFTVRDVLKYYDAETVRYFLMSGHYRSQLNYSEENLKQARAALERLYTALRGTDKTVAPAGGEAFEARFIEAMDDDFNTPEAYSVLFDMAREVNRLKAEDMAAANAMASHLRKLSAVAGLLEQEPEAFLQSGAQADDSEVAEIEALIQQRLDARKAKDWAAADAARDRLNEMGIVLEDGPQGTTWRRK
B2: cysS L391W (protein)
chain: B1 chain with A391W
B3: cysS L391Q (protein)
chain: B1 chain with A391Q
B4: acpS L6A (protein)
chain: MAILGAGTDIVEIARIEAVIARSGDRLARRVLSDNEWAIWKTHHQPVRFLAKRFAVKEAAAKAFGTGIRNGLAFNQFEVFNDELGKPRLRLWGEALKLAEKLGVANMHVTLADERHYACATVIIES
B5: cysS L391P (protein)
chain: B1 chain with A391P
B6: cysS L384A (protein)
chain: B1 chain with L384A, A391L
B7: cysS V45A (protein)
chain: B1 chain with V45A, A391L
B8: cysS V45Q (protein)
chain: B1 chain with V45Q, A391L
B9: dapA V40A (protein)
chain: MFTGSIVAIVTPMDEKGNVCRASLKKLIDYHVASGTSAIASVGTTGESATLNHDEHADVVMMTLDLADGRIPVIAGTGANATAEAISLTQRFNDSGIVGCLTVTPYYNRPSQEGLYQHFKAIAEHTDLPQILYNVPSRTGCDLLPETVGRLAKVKNIIGIKEATGNLTRVNQIKELVSDDFVLLSGDDASALDFMQLGGHGVISVTANVAARDMAQMCKLAAEGHFAEARVINQRLMPLHNKLFVEPNPIPVKWACKELGLVATDTLRLPMTPITDSGRETVRAALKHAGLL
B10: dapA V40D (protein)
chain: B9 chain with A40D
B11: dapA V60A (protein)
chain: B9 chain with A40V, V60A
B12: dapA V60Q (protein)
chain: B9 chain with A40V, V60Q
B13: dapA V60P (protein)
chain: B9 chain with A40V, V60P

Biological target: Escherichia coli (laboratory strain)
Assay: barcode share on antibiotic plates over drug-free plates; higher = less susceptible
Method: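 A pool of E. coli strains, each edited to carry one amino-acid change in an essential protein, was grown for 48 h on minimal glucose agar with or without antibiotic; strain barcodes were sequenced; mean of two replicates.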

[1] = antibiotic: carbenicillin, 2× MIC (3.1 µg/mL)
[2] = antibiotic: gentamicin, 2× MIC (MIC 0.45 µg/mL)

Protein	fold change of barcode share [1]	fold change of barcode share [2]
B1	0.387 ± 0.018	0.00865 ± 0.0075
B2	0.335 ± 0.11	–
B3	0.337 ± 0.25	< 0.00832
B4	0.314 ± 0.08	0.0741 ± 0.1
B5	0.392 ± 0.057	–
B6	0.222 ± 0.093	< 0.0128
B7	0.629 ± 0.11	0.0056 ± 0.0062
B8	0.767 ± 0.29	–
B9	0.2268 ± 0.0017	0.00927 ± 0.0041
B10	0.328 ± 0.052	< 0.0101
B11	0.305 ± 0.049	< 0.00483
B12	0.509 ± 0.21	< 0.00431
B13	0.362 ± 0.069	< 0.00464
